From article PMC12136788 come the findings set out here.

The other results are listed elsewhere or left out.

The chains are these.
T1: UNK ZnF1-6 (called full-length) (human, UniProt Q9C0B0 30-357)
T1 sequence: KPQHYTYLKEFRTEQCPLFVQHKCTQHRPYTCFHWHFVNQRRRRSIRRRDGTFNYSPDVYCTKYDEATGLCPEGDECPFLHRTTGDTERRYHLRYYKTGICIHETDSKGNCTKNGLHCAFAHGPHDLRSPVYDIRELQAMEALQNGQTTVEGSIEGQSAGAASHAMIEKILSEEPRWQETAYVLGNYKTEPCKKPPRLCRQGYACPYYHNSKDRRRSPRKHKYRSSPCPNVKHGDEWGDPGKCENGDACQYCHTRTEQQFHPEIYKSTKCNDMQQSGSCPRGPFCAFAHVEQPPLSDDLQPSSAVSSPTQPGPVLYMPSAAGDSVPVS

B1: ENSG00000124766:be:win_2801|3pUTR|ENSG00000124766|bound_else_gene|NA|bound_elsewhere_windowed (ssRNA)
RNA: GGGAGUUCUACAGUCCGACGAUCUUUUUCCUUCACCGAUGCUCCAUCCUCGUAUUUCUUUUUCCUUGUAAAUGUAAUCAGAUGCCAUUUUAUAUGUGGACGUAUUUAUACUGGCCAAACAUAUUUUUUCUUUUGUCCCUUUUUCAACAGAGGAUUGAGCAUCA
B2: chr15:43184406:43184511:+|CDS|ENSG00000137842|unk|total|mutant (ssRNA)
RNA: GGGAGUUCUACAGUCCGACGAUCACUGCUGUACAUCUGGCAGGUUUAUUCCUGCUACUUUCUUUAUGCAACAUACGGCACCCCCGCUUUUUUAUUCUCCCCUUUGCGGACCUGGUUGACACUGCUGACACCUGUUCUCAUUCGCAACAGAGGAUUGAGCAUCA
B3: chr16:2586768:2586869:+|CDS|ENSG00000140992|unk|total|mutant (ssRNA)
RNA: GGGAGUUCUACAGUCCGACGAUCCUCCUCACACUCCCUGUCAGCCUCCGACACGGGCCUGCCCCAGAGGUCAGGCAGCAACACCGAGCAGUACAUUCACGAUCUGGACUCGAACUCCUUUGAACUGGACUUACAGUUUUCCGACAACAGAGGAUUGAGCAUCA
B4: ENSG00000083799:stop:overlap|stop_codon|ENSG00000083799|stop_codon|NA|stop_codon (ssRNA)
RNA: GGGAGUUCUACAGUCCGACGAUCCCGAUCGGGAUGGUACUGAAAACGCCUUUCUUCUGCAUGUGGCACAGGGUUCUGGUUUGUAGUGGGACAGUUUGUAGUGGGAUCGCCUGUUCUGAGUGAUAUUUUCUGAGAAAAUCCUUUCAACAGAGGAUUGAGCAUCA
B5: ENSG00000124766:be:win_1751|3pUTR|ENSG00000124766|bound_else_gene|NA|bound_elsewhere_windowed (ssRNA)
RNA: GGGAGUUCUACAGUCCGACGAUCACUUCGAGUUUGCUCCCCUUUGCUUGAAGAGACCCCCUCCCCCUUCCAACGAGCUUCCGGACUUGUCUGCACCCCCAGCAAGAAGGCGAGUUAGUUUUCUAGAGACUUGAAGGAGUCUCCCAACAGAGGAUUGAGCAUCA
B6: chr12:56205560:56205676:-|3pUTR|ENSG00000181852|unk|total|mutant (ssRNA)
RNA: GGGAGUUCUACAGUCCGACGAUCCUCUUGUGGCACAGGCCAUAAUUGUUCCACCGACCCCUCUCCCGCCCUGUGACUGCCGUCCGUUACUUUGAUAAUUUUCUUUGGCCAUUGUUUGUUUAUAUUUCACAAACUCCACCUACUCAACAGAGGAUUGAGCAUCA
B7: chr14:74942539:74942640:-|3pUTR|ENSG00000119630|msi1|total|mutant (ssRNA)
RNA: GGGAGUUCUACAGUCCGACGAUCGUGUAUUUAUUACCGUCACACUCUUCAGUGACUCCUGCUGGUACCUGCCCUCUAUUUAUCCGCCAACUGUUUCCCUGCUGAAUGCCUCGCUCCCUUCAAGACGAGGGGCAGGGAAGGACACAACAGAGGAUUGAGCAUCA
B8: ENSG00000075618:stop:overlap|stop_codon|ENSG00000075618|stop_codon|NA|stop_codon (ssRNA)
RNA: GGGAGUUCUACAGUCCGACGAUCACGCAGGCGUCCUGAAGGCCUCGGCGGAAACCGUGGACCCCGCCUCGCUCUGGGAGUACUAGGGCCGGCCCGUCCUUCCCCGCCCCUGCCCACAUGGCGGCUCCUGCCAACCCUCCCUGCCAACAGAGGAUUGAGCAUCA
B9: chr16:56943551:56943652:+|3pUTR|ENSG00000051108|msi1|total|mutant (ssRNA)
RNA: GGGAGUUCUACAGUCCGACGAUCUGCAUGUCUAUGCUUGAGGAACUUUUCCAAAUGUGUGUGUCUGCAUGUGUGUUUGUACACCGAAGUCACCGAUGCAGAAGUGGUUCUGCUGGUACGAUUUGAUUCCUGUUGGAAUGUUUACAACAGAGGAUUGAGCAUCA
B10: ENSG00000198589:be:win_5901|CDS|ENSG00000198589|bound_else_gene|NA|bound_elsewhere_windowed (ssRNA)
RNA: GGGAGUUCUACAGUCCGACGAUCCUGGGGAAAUUCUGCAGUGAGUCGUCCUCUUGAGUUCUGGCGCCUUGACUACUGGGAAGAUGACUUGCGGCGCCGGCGACGAUUUGUGCGUAACCCUCUAGGAUCGACACAUCCUGAAGCCAACAGAGGAUUGAGCAUCA
B11: chr2:205796339:205796442:+|3pUTR|ENSG00000118257|msi1|total|mutant (ssRNA)
RNA: GGGAGUUCUACAGUCCGACGAUCAAGUCCGCAAGUACUGUGGACAAGAAUGCUUAACCAUGCUGCUUCAGCCUUGAGAGACCCCGGUUCUUACACAUAUGCACACACGCAUACACACAUGCACGCACACACACAUACACACAUCAACAGAGGAUUGAGCAUCA
B12: chr8:42175503:42175666:-|3pUTR|ENSG00000104368|msi1|total|mutant (ssRNA)
RNA: GGGAGUUCUACAGUCCGACGAUCAUGAAAGCAUGUCUCAACCGUAAAAGAUAACAAGAUCUUUCAGGAAAGACGGAUUGCAUCCGAAACCGACAGUAUAUUUACCGUCACAAGAGCCCAGCAGGGCCUCAAAGUUGGGGCAGGCAACAGAGGAUUGAGCAUCA
B13: chr1:150648406:150648517:-|CDS|ENSG00000143457|unk|total|mutant (ssRNA)
RNA: GGGAGUUCUACAGUCCGACGAUCUCAGCGUAUGGACAAGCGAACACCCGCACUCCUGGUGCCCGCCCACUCCUCUGAUGUGCCCGAGAAUGUCUUCUCCUCUCUGACAGAUGACAAGUAUGAUGUGGCAAUGAAUCGAGCCAACAACAGAGGAUUGAGCAUCA
B14: chr3:15255350:15255451:-|3pUTR|ENSG00000131370|msi1|FALSE|unique (ssRNA)
RNA: GGGAGUUCUACAGUCCGACGAUCUGGGGUGGGAAAGGUGAAUGCCAGUGGGGAUGCGGGGGGAUGAGGGUAGGAGGGACUUAUAGAAGGGGAUUUGUGGCUGUGGGGGAGAAGGUUCUACAGCAUAAGCCUUAUCCUGCCAGCCAACAGAGGAUUGAGCAUCA
B15: chr15:42943230:42943331:-|3pUTR|ENSG00000159459|msi1|FALSE|unique (ssRNA)
RNA: GGGAGUUCUACAGUCCGACGAUCAUUAUGCUUAUGAAGUUUACUUACAAACAAGCAACUGAGUCACUUUAUUUUCUUUAGUGUAGUAUGUGAAGGCACUGGUUCAACAGGAUGGCUCCAGAACUGUGUUUUUCUAAUGUUUGGCAACAGAGGAUUGAGCAUCA
B16: chr10:17237356:17237519:+|3pUTR|ENSG00000026025|msi1_unk|total|mutant (ssRNA)
RNA: GGGAGUUCUACAGUCCGACGAUCAGACCGAUUUGGAACCGGAAUAAGCUCCCGUUCUUAACAACCGACACUCCUACAAGAUUCCGAAAAAAGUUUACAACAUAAUCCCGUUUACAGAAAAAUCUUGUGCCCGAAUACUUUUUACAACAGAGGAUUGAGCAUCA
B17: ENSG00000165672:stop:overlap|stop_codon|ENSG00000165672|stop_codon|NA|stop_codon (ssRNA)
RNA: GGGAGUUCUACAGUCCGACGAUCCUCCUACGAUCAAGCCAAGUCCAGCUGCUUCCAAAGAGUACUUUCAGAAGGUAAAUCAGUAGAUCACCCAUGUGUAUCUGCACCUUCUCAACUGAGAGAAGAACCACAGUUGAAACCUGCCAACAGAGGAUUGAGCAUCA
B18: chr5:113567122:113567223:+|CDS|ENSG00000047188|unk|FALSE|bound_elsewhere (ssRNA)
RNA: GGGAGUUCUACAGUCCGACGAUCAAACUCUGAGAAUUGGGCUGUCGUUAAAGCUGCAUUGGUGGCAGGCAUGUAUCCUAAUUUAGUCCACGUGGACAGAGAGAAUCUAGUGUUGACAGGGCCAAAGGAGAAAAAAGUACGAUUCAACAGAGGAUUGAGCAUCA
B19: chr3:185917260:185917361:-|3pUTR|ENSG00000136527|msi1|FALSE|unique (ssRNA)
RNA: GGGAGUUCUACAGUCCGACGAUCUGGCAAAAAGCAACAAUAAACAGUUUGAUUUUUACUUUUCUUUCUAACAUAUCAAUGCUUAGCAGAACUAUUCAGAUUGUCAGUAGUAAAUUUAAAGACAAAUGCCCGUUUUCCUCCAGUCAACAGAGGAUUGAGCAUCA
B20: chr16:88813726:88813828:-|3pUTR|ENSG00000141012|unk|total|mutant (ssRNA)
RNA: GGGAGUUCUACAGUCCGACGAUCUCCCUGGACGCUAAUUAUGAGGGAGGCGUGCCGCUUCUUAUCAUUGUAACUAUGUUAUUCCGAAAUAAAACGGGAGGCAGGUUUGCCUAAUUCCCAGCUUGAUUUUUCUCUUGGCUGAGUCAACAGAGGAUUGAGCAUCA
B21: ENSG00000151012:stop:overlap|stop_codon|ENSG00000151012|stop_codon|NA|stop_codon (ssRNA)
RNA: GGGAGUUCUACAGUCCGACGAUCCUGAAGAAGUAGAAAACCCUGAAAAACCUUUUCUGAGCGGCUACUGGGAAAUUUCUCAUUAGCAGUUCCGAUCUUUGUUGCCCUCUCCUGCUUUGGCUCCAUGAACGGUGGUGUGUUUGCCAACAGAGGAUUGAGCAUCA
B22: chr3:43366700:43366801:-|3pUTR|ENSG00000160746|unk|FALSE|unique (ssRNA)
RNA: GGGAGUUCUACAGUCCGACGAUCACGGUGGCAGGGGGGGUACCCGGGGCAGCAUCGUGGCUCCUGAACCCAGACCCAAUGCUUAGCCAAACGAAGUGGCUCCCAUGUGGCAAGCACCCUUCUCAGUUUCGCAGUGGCUUGGCUCAACAGAGGAUUGAGCAUCA

The target in this test is T1, UNK ZnF1-6 (called full-length). Put plainly: nsRBNS (natural sequence RNA bind-n-seq); RBNS binding buffer (assumed for nsRBNS): 25 mM Tris pH 7.5, 150 mM KCl, 3 mM MgCl2, 0.01% Triton X-100, 500 ug/ml BSA, 20 U/ml SUPERase-In, 4 C; UNK is unkempt and MSI1 is Musashi-1; names of the RNAs are library labels; protein concentration not given here; high values mean tight binding.
B1: the binding signal came to 1.64 enrichment R.

In turn, B2 yielded a binding signal of 0.743 enrichment R.

B3 came in with a binding signal of 1.02 enrichment R. For B4, the binding signal is 0.474 enrichment R. The value for B5 was 0.925 enrichment R. The value for B6 was 0.873 enrichment R; that for B7 was 0.536 enrichment R. The value for B8 was 0.757 enrichment R; that for B9 was 0.307 enrichment R; that for B10 was 0.478 enrichment R. For the molecule B11, the binding signal amounted to 0.661 enrichment R. Under B12 stands 0.626 enrichment R; under B13, 0.636 enrichment R. The value for B14 was 1.15 enrichment R; that for B15 was 0.808 enrichment R. Under B16 stands 0.21 enrichment R; under B17, 0.751 enrichment R. The molecule B18 came in with a binding signal of 0.812 enrichment R. B19 showed a binding signal of 0.751 enrichment R. B20 gave a binding signal of 0.451 enrichment R. The value for B21 was 0.811 enrichment R. The molecule B22 came in with a binding signal of 1.11 enrichment R.
